Publication PMC12698583, “Efficacy of sulfonamides targeting malic enzyme in an animal model of Chagas disease” (Frontiers in Pharmacology, 2025)

System: T. cruzi strain Dm28c (DTU TcI)
Assay: In vivo efficacy assay, acute Chagas disease model
Parameters: species or system Trypanosoma cruzi
Conditions: 20 dpi; for No. of amastigote nests/animal (Mean + SD) / No. of inflammatory foci/animal (Mean + SD): heart histopathology, sulfonamides 150 mg/kg, BNZ 50 mg/kg SID 14 days; for tissue parasite load (in words): heart, colon, spleen, qPCR, 150 mg/kg SID 14 days
Description: For the in vivo assays, female BALB/c mice, aged between 8 and 9 weeks and weighing approximately 25 g, were used.

Compound | No. of amastigote nests/animal (Mean + SD) | No. of inflammatory foci/animal (Mean + SD) | tissue parasite load (in words) | cardiac histopathology (in words) (myocardium)
CC(C)Oc1ccc(NS(=O)(=O)c2cccc(NC(=O)c3cnccn3)c2)cc1 [AC-M110, N-(3-(N-(4-isopropoxyphenyl)sulfamoyl)phenyl)pyrazine-2-carboxamide] | 0.6 ± 0.5 | 51.2 ± 20 | failed to reduce parasite load | –
COc1ccc(NS(=O)(=O)c2cccc(NC(=O)c3cnccn3)c2)cc1 [AC-R008, N-(3-(N-(4-methoxyphenyl)sulfamoyl)phenyl)pyrazine-2-carboxamide] | 0.2 ± 0.4 | 55.2 ± 11 | failed to reduce parasite load | –
O=C(Cn1ccnc1[N+](=O)[O-])NCc1ccccc1 [BNZ, Benznidazole, reference compound] | 0 | 0.6 ± 0.5 | – | reduced tissue inflammation and eliminated detectable amastigote nests
